# In publication PMC4336329 (PLoS ONE, 2015):
# Out of some 310,000 compounds screened, about 2,200 (0.71%) showed an effect of 50% or more. The effect is printed as a negative number. Some of the results follow.
# Molecular target: human ether-à-go-go-related gene (hERG) potassium channel (human, UniProt Q12809)
# Assay: primary screen, population patch clamp on CHO cells stably expressing hERG
# human ether-à-go-go-related gene (hERG) potassium channel, sequence (Q12809 whole entry, looked up): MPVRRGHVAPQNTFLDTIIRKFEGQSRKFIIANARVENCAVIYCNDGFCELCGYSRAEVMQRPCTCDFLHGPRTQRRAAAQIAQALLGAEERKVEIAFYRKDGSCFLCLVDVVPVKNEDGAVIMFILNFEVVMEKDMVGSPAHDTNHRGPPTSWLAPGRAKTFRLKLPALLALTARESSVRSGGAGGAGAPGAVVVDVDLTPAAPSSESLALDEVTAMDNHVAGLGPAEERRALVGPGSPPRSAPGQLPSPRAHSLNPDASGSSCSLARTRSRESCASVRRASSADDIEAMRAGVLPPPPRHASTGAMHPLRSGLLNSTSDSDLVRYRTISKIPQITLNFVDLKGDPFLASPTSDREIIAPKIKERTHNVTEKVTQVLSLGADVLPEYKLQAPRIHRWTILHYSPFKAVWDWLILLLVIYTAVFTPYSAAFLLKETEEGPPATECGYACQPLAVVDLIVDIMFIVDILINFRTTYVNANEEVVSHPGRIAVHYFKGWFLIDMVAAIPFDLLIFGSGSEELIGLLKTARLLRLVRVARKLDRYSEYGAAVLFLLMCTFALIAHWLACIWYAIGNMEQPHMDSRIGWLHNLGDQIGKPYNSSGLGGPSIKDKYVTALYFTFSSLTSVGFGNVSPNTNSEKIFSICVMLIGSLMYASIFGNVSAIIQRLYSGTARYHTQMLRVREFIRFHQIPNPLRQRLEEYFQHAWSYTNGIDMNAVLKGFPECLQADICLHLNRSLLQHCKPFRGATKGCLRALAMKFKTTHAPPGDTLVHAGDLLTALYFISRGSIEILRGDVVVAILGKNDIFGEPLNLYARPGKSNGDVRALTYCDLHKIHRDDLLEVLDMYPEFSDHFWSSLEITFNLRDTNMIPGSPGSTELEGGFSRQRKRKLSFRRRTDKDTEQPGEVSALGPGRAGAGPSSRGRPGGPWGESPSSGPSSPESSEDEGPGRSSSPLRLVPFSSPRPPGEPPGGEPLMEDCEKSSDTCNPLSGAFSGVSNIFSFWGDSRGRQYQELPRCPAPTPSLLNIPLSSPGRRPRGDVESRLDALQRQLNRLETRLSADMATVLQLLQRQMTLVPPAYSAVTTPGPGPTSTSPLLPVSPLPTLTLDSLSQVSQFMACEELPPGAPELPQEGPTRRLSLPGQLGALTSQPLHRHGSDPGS
row,Compound,"hERG current change (%, negative = inhibition) at 1uM"
1,O=C(NCCC1=CCCCC1)C1CCN(S(=O)(=O)c2cccc(C(F)(F)F)c2)CC1,14.2%
2,O=C(CSc1ccc2c(c1)OCCO2)NCCc1ccc(Cl)cc1Cl,12.3%
3,O=C(N/C(=C/c1ccc(Br)cc1)C(=O)N1CCOCC1)c1ccco1,9.17%
4,COc1ccccc1OCCOc1ccccc1/C=N/n1cnnc1,12.1%
5,CCC(NS(=O)(=O)c1ccc(C)cc1)C(=O)N1CCC2(O)CCCCC2C1 (stereo not shown),15.3%
6,CCN1CCN(c2nc3sc4c(c3c3ncnn23)CC(C)CC4)CC1 (stereo not shown),4.08%
7,CCOc1ccc(CCNS(=O)(=O)c2cn(C)cn2)cc1OCC,15.5%
8,CC1=C/C(=N\N=C2\NC(=O)C(CC(=O)Nc3ccccc3F)S2)CC(C)(C)C1 (stereo not shown),12.7%
9,Cc1ccccc1N/C(=N/S(=O)(=O)c1ccccc1)c1ccc(F)cc1,5.33%
10,Cc1cc(C)n2nc(C(=O)N(C)c3c(N)n(Cc4ccccc4)c(=O)[nH]c3=O)nc2n1,17.6%
11,NC(=O)/C(=C/c1ccco1)C(N)=S,17.6%
12,COC(=O)c1c(NC(=O)c2ccc(OC(C)C)cc2)sc2c1CC(C)(C)NC2(C)C,12.7%
13,O=C(Nc1scc(-c2ccc(F)cc2)c1C(=O)O)c1ccco1,5.67%
14,Cn1c(=O)c(C(=O)CCl)c(N)n(CC2CC2)c1=O,6.98%
15,CC(=O)c1cc(C(C)=O)c(C)[n+](C)c1C.[O-][Cl+3]([O-])([O-])[O-],12.8%
16,COc1ccc(/C(O)=C2/C(=O)C(=O)N(CCCN(C)C)C2c2cccc(Cl)c2)cc1OC (stereo not shown),13.4%
17,Cc1cc(Cl)ccc1NC(=S)NCc1ccco1,10.2%
18,Cc1cccc(NS(=O)(=O)c2ccc(C)c(C(=O)OCC(=O)Nc3cc(C)on3)c2)c1,15%
19,C[C@H](NS(=O)(=O)c1ccc2c(c1)OCCCO2)C(=O)N1CCN(c2ccc(F)cc2)CC1,-3.94%
20,Cn1nnnc1SCC(=O)Nc1ccccc1C(=O)NCc1ccccc1,5.49%
21,CCOC(=O)CN(C(=O)COc1nc(C)cc(C)c1C#N)c1ccc(Cl)cc1,-1.94%
22,COc1ccccc1-c1nnc(SCC(=O)NC2CCS(=O)(=O)C2)n1CCc1ccccc1 (stereo not shown),11.2%

row,Compound,"hERG current change (%, negative = inhibition) at 1uM"
1,Cc1ccc(OCCCCN2CCCC(C)C2)c([N+](=O)[O-])c1.O=C(O)C(=O)O (stereo not shown),-14.5%
2,COc1ccc(CCN2C(=O)CC(Nc3ccc(N4CCOCC4)cc3)C2=O)cc1OC (stereo not shown),0.935%
3,CCNCCOC(c1ccccc1)c1ccccc1.Cl,-11%
4,COC(=O)c1ccc(Cl)c(NC(=O)Cc2ccccc2[N+](=O)[O-])c1,11%
5,COC(=O)C1=C(C)Nc2c(c(=O)n(C)c(=O)n2C)C1c1ccc(C)cc1 (stereo not shown),8.66%
6,COc1ccccc1C(=O)Nc1nnc(SCC(=O)NCC2CCCO2)s1 (stereo not shown),13.9%
7,N#Cc1ccc(CSc2nnc(-c3ccccn3)n2-c2ccccc2)cc1,-13.3%
8,O=C(NCCCn1ccnc1)c1cn(Cc2ccc(F)cc2)nn1,-0.951%
9,CC(C)Oc1cccc(C(=O)C2CCCN(C3CCOCC3)C2)c1 (stereo not shown),-5.96%
10,CCC(CC)C(=O)c1c[nH]c(C(=O)N2CCN(c3ccccc3F)CC2)c1,9.18%
11,N/C(=N\OC(=O)CCC1CCCC1)c1cccc([N+](=O)[O-])c1,-53.8%
12,COc1ccc2[nH]c3c(c2c1)CCN1C(=O)N([C@@H](C)C(=O)NCc2ccc(F)cc2)C(=O)[C@]31C,14%
13,CCc1ccccc1N1CC23C=CC(O2)C(C(=O)OCC(C)C)C3C1=O (stereo not shown),4.32%
14,Cc1ccc(Oc2ccc(OCC(=O)NC(CC(C)C)C(=O)O)cc2)cc1 (stereo not shown),6.76%
15,COc1ccc(C(=O)NC2CCCCC2)cc1OC1CCN(C(C)C)CC1,-30.9%
16,Cc1cccc(N2CCN(C(=O)c3cn(C)c(=O)c4c3c3ccccc3n4C)CC2)c1C,14.7%
17,Cc1ccc2occ(C3NC(C(=O)O)CS3)c(=O)c2c1 (stereo not shown),13%
18,O=C(Nc1ncc([N+](=O)[O-])s1)C1CCN(S(=O)(=O)c2cnc[nH]2)CC1,12.4%
19,O=C(Nc1cccc2ncccc12)c1cccc(Br)c1,10.5%
20,N#Cc1c(/N=C/c2cccnc2)sc2c1CCCC2,4.42%
21,COc1ccc(C)cc1NC(=O)C1CC(=O)N(CCc2ccccc2)C1 (stereo not shown),7.99%
